Consider 75 compounds from ChEMBL document CHEMBL1201862, “PubChem BioAssay data set” (2004).

Structures are written as SMILES.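 A five-concentration, 48-hour dose response in 96-well plates underlies each endpoint, interpolated linearly between surrounding concentrations. GI50 is the concentration that inhibits growth by half.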 The source made the active and inactive calls. No stated cut-off is given here; in the data, active = GI50 up to about 1.1 µM and inactive = higher.

The assay deals with NCI-H322M. Kind of assay: NCI anticancer screen, dose series, 48 h.
As to `COc1ccc(OC)c(/C=N/N=C(\N)NO)c1`, the GI50 is inactive: 9.86 µM. On to `Cc1ccc(C(=N)Nc2ccccc2)cc1`, for which the GI50 was inactive: > 100 µM. Next, `COC(=O)C1CCC(=S)N1C(=O)c1ccccc1` (stereo not given): inactive: 12.2 µM. Next, `c1ccc(CN2COc3c(ccc4c5c(ccc34)CN(Cc3ccccc3)CO5)C2)cc1`: inactive: > 100 µM; `CC(C)(C)n1nc(C2CC2)cc1NC(=O)Nc1ccc(Cl)cc1`: inactive: > 100 µM. Regarding `FC(F)(F)c1nc2nc(Cl)c(Cl)nc2n1CCCN1CCOCC1`, the GI50 is inactive: 27 µM. Consider `COC(=O)C(=O)C(C(=O)C(=O)Nc1cc(C)ccc1C)c1nc2ccccc2nc1O` (stereo not given), for which the GI50 is inactive: > 100 µM. The result for `CCOC(=O)C(C(=O)Cc1ccccc1)c1ccccc1` (stereo not given) reads inactive: > 100 µM; that for `COc1oc(C(=O)NC2CCCCC2)c(-c2ccc(Cl)cc2)c1S(=O)(=O)c1ccccc1`, inactive: > 100 µM.

Turning to `CCN(CC)C1Oc2cc3c(cc2C(c2cc(OC)c(O)c(OC)c2)C1C)OCO3` (stereo not given), the GI50 was inactive: 24.8 µM. Next, `COc1ccc(/C=C/c2cnc3ccccc3n2)cc1OC`: inactive: 77.6 µM; `Clc1nc(Cl)c(CBr)c(Cl)n1`: inactive: 16 µM; `CN(C)CCCNC(=O)CCNC(=O)c1cc(NC(=O)c2cc(NC(=O)c3cc(NC(=O)c4nc(NC(=O)CCCNC(=O)c5cc(NC(=O)c6cc(NC(=O)c7cc(NC(=O)c8nccn8C)cn7C)cn6C)cn5C)cn4C)cn3C)cn2C)cn1C`: inactive: > 100 µM. In the case of `Cc1ccc(C2=Nc3cc(C)c(Cl)cc3S(=O)(=O)NN2)cc1`, the GI50 is inactive: > 100 µM. Regarding `O=C(O)c1ccc(P(=O)(O)c2ccc(C(=O)O)cc2Br)c(Br)c1`, the GI50 is inactive: > 100 µM.

As for `CC1CCSC(N(C(=O)N(C)c2ccccc2)c2ccccc2)=N1` (stereo not given), the GI50 is inactive: > 100 µM.

Take `Cc1c(N)nc([C@H](CC(N)=O)NC[C@H](N)C(N)=O)nc1C(=O)N[C@H](C(=O)N[C@H](C)[C@@H](O)[C@H](C)C(=O)N[C@H](C(=O)NCCc1nc(-c2nc(C(=O)NCCC[S+](C)C)cs2)cs1)[C@@H](C)O)C(OC1OC(CO)C(O)C(O)C1OC1OC(CO)C(O)C(OC(N)=O)C1O)c1c[nH]cn1` (stereo not given in full): the GI50 is inactive: 16.6 µM.

`C[C@]12CCC(=O)[C@@H](CCC3=CC(=O)C=CC3=O)[C@@H]1CCC2=O`: the GI50 was inactive: 25.6 µM. Turning to `CCC(C)(O)c1cnc(CC(C)C)c(=O)n1O` (stereo not given), the GI50 was inactive: 49.4 µM.

Regarding `CC(C)(C)OC(=O)NCC(=O)OCc1ccccc1`, the GI50 was inactive: > 100 µM.

On to `Cc1cccc2c1CC(C1OC(=O)c3ccccc31)C2=O` (stereo not given), for which the GI50 was inactive: > 100 µM. As to `CC1(c2ccccc2)CC12C(=O)NC(=O)NC2=O` (stereo not given), the GI50 was inactive: > 100 µM. Regarding `CCN(CC)C1=Nc2ccccc2-n2ccnc2C1`, the GI50 is inactive: > 100 µM. Next, `CC1(C)OC(=C(C#N)C#N)C(C#N)=C1/C=C/c1ccncc1`: inactive: 4.42 µM; `C[C@H](CCc1nc(C#N)c(N)o1)[C@H]1CC[C@H]2[C@@H]3[C@@H](O)CC4C[C@@H](O)CC[C@]4(C)[C@H]3C[C@@H](O)[C@]12C` (stereo not given in full): inactive: 33.6 µM; `CC(=O)O[C@H]1CC[C@@H](OC(C)=O)[C@H]2[C@H](O)[C@H](O)[C@@H]1n1c(=O)n(-c3ccccc3)c(=O)n12`: inactive: > 100 µM. Next, `Cc1ccc(S(=O)(=O)OC2C(C3COC(C)(C)O3)OC3OC(C)(C)OC32)cc1` (stereo not given): inactive: > 100 µM; `COC(=O)c1ccccc1CC1Cc2ccc3c(c2C1=O)CCC3` (stereo not given): inactive: > 100 µM. Next, `O=c1cc(-c2ccccc2)[nH]c2ccc(N3CCCCC3)cc12`: active: 0.0378 µM; `C1CCC(OCc2nnn3c2CCC3)OC1` (stereo not given): inactive: > 100 µM. Take `CC(C)OC(=O)NNc1cccc(Cl)c1`: the GI50 is inactive: > 100 µM. Next, `O=C(O)CCC(N/C=C1/N=C(c2ccccc2)OC1=O)C(=O)O` (stereo not given): inactive: > 100 µM; `CCOC(=O)c1c(N2CCCC2)[nH]c(=O)c(C(c2ccco2)c2c(O)c(C(=O)OCC)c(N3CCCC3)[nH]c2=O)c1O`: inactive: > 100 µM; `COc1ccc(C2NC3=C(CCCC3)C3(C#N)C(=O)N=C(N)C23C#N)cc1` (stereo not given): inactive: > 100 µM.

In the case of `N#C[C@@]12CCCC(=O)[C@@H]1[C@H]1CCC[C@H]12`, the GI50 is inactive: 17.1 µM.

On to `CC(=O)c1[nH]c(NC(C)C)c(C(=S)Nc2ccccc2)c1N`, for which the GI50 was inactive: 51.4 µM. Next, `O=[N+]([O-])c1cccc2nc3ccccc3c(NCCCN3CCCCC3)c12`: active: < 0.0143 µM; `CCc1cc2c(c3c1CCCC3=O)CC1(C2)Cc2cc(CC)c3c(c2C1)C(=O)CCC3`: inactive: > 100 µM. The result for `NC1=Nc2ccccc2Sc2cccc(F)c21` reads inactive: > 100 µM. Next, `N#CCCN(CCC#N)c1ccc(/C=C2\N=C(c3ccccc3)N(c3ccc(F)cc3)C2=O)cc1`: inactive: > 100 µM; `CC(CO)[C@H]1OC(=O)C=C2[C@@]13O[C@@H]3[C@H]1OC(=O)[C@@]3(C)[C@H]4O[C@H]4C[C@@]2(C)[C@@H]13` (stereo not given in full): inactive: 1.82 µM. With `CC(=O)c1ccc(Oc2ccc(/C(C)=N\N=C(N)N)cc2)cc1`, the GI50 is inactive: 3.96 µM. Turning to `O=C(O)CSc1nnc(CCCCCCCCc2nnc(SCC(=O)O)o2)o1`, the GI50 is inactive: > 100 µM. Next, `Cc1cc(O)c(C=O)c(C)c1CCC1(C)C=Cc2cc(O)ccc2O1` (stereo not given): inactive: 27.1 µM; `[O-][S+]1Nc2c(Cl)cc(Cl)c3c(Cl)cc(Cl)c(c23)N1`: inactive: 48.3 µM; `CC(=O)NC1C(OCc2ccccc2)OC(CO)C(O)C1OCC(=O)N1CCCC1C(=O)N[C@@H](CCC(=O)NCCNCCNc1c2ccccc2nc2cccc([N+](=O)[O-])c12)C(N)=O` (stereo not given in full): inactive: 7.89 µM. The result for `COc1ccc2c(ccc3c(C(=O)NCCN(C)CCNC(=O)c4cn(C)c5c4ccc4cc(OC)ccc45)cn(C)c32)c1` reads inactive: 2.32 µM; that for `O=C1NC(=O)/C(=N\c2cccc3c(=O)[nH][nH]c(=O)c23)C(c2nc3ccccc3s2)C1=O` (stereo not given), inactive: > 100 µM. The result for `CC(=O)c1ccc(NC(=O)C(=O)C(C(=O)/C=C/c2ccccc2)C2OC(=O)c3ccccc32)cc1` (stereo not given) reads inactive: > 100 µM; that for `C/C=C/C=N/N(C(=O)c1cc([N+](=O)[O-])cc([N+](=O)[O-])c1)C1=NN=C(c2ccccc2)C(c2ccccc2)N1` (stereo not given), inactive: > 100 µM. Take `c1ccc2c(Nc3ncco3)cccc2c1`: the GI50 is inactive: > 10 µM. The result for `C=C1CCC[C@@H](C)C(O)[C@@H]2OC(=O)C(=C)[C@@H]2C[C@@H](OC(C)=O)[C@@]2(C)CC[C@@H]1O2` (stereo not given in full) reads inactive: 8.07 µM. The result for `CC1(C)CC[C@]2(C(=O)O)CC[C@]3(C)C(=CC[C@@H]4[C@@]5(C)CC[C@H](OC6OC(CO)C(O)C(O)C6OC6OC(CO)C(O)C(O)C6O)C(C)(C)[C@@H]5CC[C@]43C)[C@@H]2C1` (stereo not given in full) reads inactive: 14.8 µM; that for `Cc1ccc(-c2cc(-c3ccco3)nc(N)n2)o1`, inactive: > 100 µM; that for `CC1(C)OCN(c2ccc(Cl)cc2)Cn2c1nc1ccccc12`, inactive: > 100 µM. Next, `Nc1ccn(C2OC(C(OC3OC(CO)C(O)C(N)C3O)C(O)C(O)C(O)C(O)CO)C(N)C(O)C2O)c(=O)n1` (stereo not given): inactive: 48.2 µM; `COC(=O)NC1(NC(=O)OC)NC(=O)c2ccccc2N1`: inactive: > 100 µM; `COC(=O)C1=C(O)C(C(=O)OC)[C@]2(O)[C@H](C(=O)OC)[C@H]1C[C@@H](c1ccc(O)cc1)[C@H]2C(=O)OC` (stereo not given in full): inactive: 34.8 µM. Consider `Cc1c2cccc(Sc3ccccc3)c2c2c3c(cccc13)[S+](c1ccccc1)C2` (stereo not given), for which the GI50 was inactive: 3.91 µM.

Turning to `COc1cccc(C2SCC(=O)N2c2ccc(-n3c(-c4ccccc4)nc4ccccc4c3=O)cc2)c1OC` (stereo not given), the GI50 was inactive: > 100 µM. Next, `COc1cc([C@@H]2c3cc4c(cc3[C@@H](NCc3cccc(F)c3)C3COC(=O)[C@@H]32)OCO4)cc(OC)c1O` (stereo not given in full): inactive: 18.6 µM. Next, `CC(C)(Oc1ccccc1)C(=O)Sc1c(-c2ccccc2)c(=O)n(-c2ccccc2)c(=S)n1-c1ccccc1`: inactive: 16.6 µM; `COc1ccc(C(OCC2OC(n3cc(C)c(=O)[nH]c3=O)CC2n2cc(Cn3cc(I)c(=O)[nH]c3=O)nn2)(c2ccccc2)c2ccccc2)cc1` (stereo not given): inactive: > 100 µM; `c1ccc(-c2nnn(CCN3CCCCC3)n2)cc1`: inactive: > 100 µM. The result for `Cc1cc(=O)oc2cc(OC(=O)N(CCCl)CCCl)ccc12` reads inactive: > 100 µM. Regarding `CCC(/C=C/C1OC(=O)C=CC1C)=C\C(C)C/C=C/C(C)=C/C(C)C(=O)C(C)C(O)C(C)C/C(C)=C/C(=O)O` (stereo not given), the GI50 was inactive: 2.92 µM. The result for `CCOc1ccccc1/N=C(/NC(=O)CC)SC` reads inactive: > 10 µM. The result for `Cn1cc(NC(=O)c2cc(NC(=O)CCCCCC(=O)Nc3cc(C(=O)Nc4cc(C(=O)NCCC(=N)N)n(C)c4)n(C)c3)cn2C)cc1C(=O)NCCC(=N)N` reads inactive: > 100 µM; that for `Cc1c(Cl)ccc2c(=O)c3cccc(CC(=O)O)c3oc12`, inactive: > 100 µM; that for `CCC1(O)C(=O)OCc2c1cc1n(c2=O)Cc2cc3ccc(CO)cc3nc2-1` (stereo not given), inactive: 7.18 µM. Next, `[O-][n+]1ccc(NO)c2ccccc21`: inactive: 1.16 µM; `COc1ccc(-c2nnc(-c3nsc4ccccc34)o2)cc1`: inactive: > 100 µM; `O=C1Nc2ccc(S(=O)(=O)O)cc2/C1=N/Nc1ccccc1[N+](=O)[O-]`: inactive: > 100 µM. Consider `Oc1nc2ccccc2c2oc3ccccc3c12`, for which the GI50 is inactive: > 100 µM. Next, `COc1cccc2c1NC(=O)Cc1c-2[nH]c2ccccc12`: inactive: > 100 µM.
